Reference: PubChem BioAssay AID686978 (National Center for Advancing Translational Sciences (NCATS), 2013)
The campaign covered roughly 420,000 compounds. About 64,000 (15%) were called active. This list was built around the results that the source calls inconclusive (neither active nor inactive); the mix of calls is not that of the screen. The call rests on the fitted dose curve; in most records, active means well fitted inhibition curve with a large enough effect; inconclusive means small, poorly fitted or top-dose-only effect; inactive means flat fitted curve, though single readings scatter. Potencies of inconclusive entries are left out as doubtful fits.
On the % scale 0 is the no-effect control and ±100 the full control effect; potency means the concentration at half of the fitted maximal effect; tags describe the fitted curve by direction and shape.

Test: qHTS for Inhibitors of human tyrosyl-DNA phosphodiesterase 1 (TDP1): qHTS in cells in absence of CPT; further: nearly all actives have a fitted effect of over 55% in size
Settings: DT40 Tdp1-/- hTDP1 cells, no CPT, ATP luminescence, 48 h; activity change, negative = growth inhibition: at 46.2 µM (top of the series) unless noted
Procedure, shortened: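 Seeded 400 DT40-hTDP1 cells/well (vehicle DMSO, no 20 nM CPT); pinned compounds; ≥48 hr at 37 °C; CellTiter-Glo luminescence as viability measure.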
For C/C(=N\NC(=S)Nc1c(C)cccc1C)c1ccc(O)cc1, the Potency was inconclusive [inhibitor, single point].
For C=CCOc1c(Br)cc(/C=N/n2c(CC)n[nH]c2=S)cc1Br, the Potency was inconclusive [inhibitor, single point].
For CCOc1ccc(OCC)c(NC(=O)c2cc(S(=O)(=O)N3CCc4ccccc43)cn2C)c1, the Potency was inconclusive [inhibitor, single point].
With c1ccc(NN(Cc2cnccn2)c2ccccc2)cc1 the Potency was inconclusive [inhibitor, single point].
With CCSc1ccc(-c2cc(NC=O)c3ncc(-c4cc(OC)c(OC)c(OC)c4)n3c2)cc1 the Potency was inconclusive [inhibitor, single point].
With CSc1ccc(CN(C)CC(=O)NC(=O)NCCC2=CCCCC2)cc1 the Potency was inconclusive [inhibitor, single point].
With COc1cc(C2OC(c3cc(OC)c(OC)c(OC)c3)C(C)C2C)cc(OC)c1OC (stereo not drawn) the Potency was active: 18.4 µM.
In the case of Cc1cc2c(=O)n(CC(=O)NCC(=O)Nc3ccc(C(C)C)cc3)cnc2s1, the “activity change, negative = growth inhibition” value is reported as inactive: 11.4%.
For CCCc1cc2c(=O)n(NC(=O)c3nn(C)cc3[N+](=O)[O-])c(C)nc2s1, the “activity change, negative = growth inhibition” value was inactive: -26.7%.
In the case of CCN(CC)S(=O)(=O)c1cc([N+](=O)[O-])ccc1NNC(=O)Nc1ccc(F)cc1, the “activity change, negative = growth inhibition” value is reported as inactive: -95%.
In the case of O=S(=O)(c1cccc(Cl)c1)c1nnn2c1nc(NCc1ccc3c(c1)OCO3)c1sccc12, the Potency is reported as active: 23.1 µM.
In the case of O=C(O)/C(=C\c1ccco1)NC(=O)c1cccc2ccccc12, the “activity change, negative = growth inhibition” value is reported as inactive: -19.7%.
For CCCCn1c(N)c(N(CCOC)C(=O)c2cccc(S(=O)(=O)N(C)c3ccc(C)cc3)c2)c(=O)[nH]c1=O, the “activity change, negative = growth inhibition” value was inactive: -10.5%.
In the case of COC(=O)N1CCC[C@@]2(CCN(c3ccccc3)C2)C1, the Potency is reported as inconclusive [inhibitor, single point].
In the case of O=C(N/N=C/c1ccc([N+](=O)[O-])o1)c1sc2ccccc2c1Cl, the Potency is reported as active: 25.9 µM.
With CCN(CC(=O)Nc1c(F)cccc1F)C(=O)C1CC(=O)N(CCc2ccc(OC)c(OC)c2)C1 (stereo not drawn) the “activity change, negative = growth inhibition” value was inactive: -0.806%.
In the case of COc1ccc(-c2nc3c(c(SCC(=O)N4CCCCC4)n2)Cc2cc(C)ccc2O3)cc1, the Potency is reported as inconclusive [inhibitor, partial curve].
For Cc1ccc(S(=O)(=O)NCC(c2ccco2)N2CCOCC2)cc1 (stereo not drawn), the Potency was inconclusive [inhibitor, single point].
For COc1ccc(NC(=O)C2CCN(C(=O)[C@@H]3Cc4ccccc4CN3)CC2)cc1, the “activity change, negative = growth inhibition” value was inactive: 2.18%.
With COc1ccc(CN2CCC(C(=O)N3CCCC(C)C3)CC2)cc1OC (stereo not drawn) the “activity change, negative = growth inhibition” value was inactive: 10.5%.
With CC(C)(C)C#CCn1c(/C=[N+](\[O-])C2CCCCC2)nc2ccccc21 the Potency was active: 18.4 µM.
In the case of C[C@H](CO)N1C[C@H](C)[C@@H](CN(C)C(=O)Nc2ccc(C(F)(F)F)cc2)Oc2ccc(NS(=O)(=O)c3ccc(F)cc3)cc2C1=O, the Potency is reported as active: 23.1 µM.
In the case of CCOC(=O)c1ccc(NC(=O)CN2C(=O)C(CC)SC(CC)C2=O)cc1 (stereo not drawn), the “activity change, negative = growth inhibition” value is reported as inactive: 3%.
With COc1ccc(C(c2nnnn2-c2ccc3c(c2)OCCO3)N2CCN(C/C=C/c3ccccc3)CC2)cc1 (stereo not drawn) the Potency was active: 16.4 µM.
With CN(C)c1ncc2nc(-c3cc(F)cc(F)c3)c(=O)n(CCC#N)c2n1 the “activity change, negative = growth inhibition” value was inactive: 9.44%.
With Cc1cc(=O)[nH]c(SCC(=O)NC(C)C2CC3CCC2C3)c1C#N (stereo not drawn) the Potency was inconclusive [inhibitor, single point].
In the case of COc1cccc(/C=C/C(=O)c2c(O)cc(C)oc2=O)c1O, the Potency is reported as inconclusive [inhibitor, single point].
With O=C(CSc1nnc(CNc2ccc(F)cc2)n1CC1CCCO1)N1CCOCC1 (stereo not drawn) the “activity change, negative = growth inhibition” value was inactive: -2.71%.
With CC(=O)Nc1ccc(/C=C/c2noc(-c3ccccc3O)n2)cc1 the Potency was “inactive”.
For CC(C1CC1)N(Cc1ccccc1)C(=S)Nc1cccc(C(F)(F)F)c1 (stereo not drawn), the Potency was inconclusive [inhibitor, single point].
For Cc1ccc(S(=O)(=O)N2CCOCC2)cc1C(=O)Nc1cc(S(=O)(=O)N2CCCCC2)ccc1O, the Potency was inconclusive [inhibitor, single point].
With CN1CCN(C(=O)c2ccc(NC(=O)c3ccc(Br)o3)cc2)CC1 the “activity change, negative = growth inhibition” value was inactive: -22.7%.
In the case of O=C(N/N=C/c1ccncc1)C1CC1(c1ccccc1)c1ccccc1 (stereo not drawn), the Potency is reported as inconclusive [inhibitor, single point].
In the case of COc1ccc(CCn2c(C)cc3c(c2=O)C(c2ccc4c(c2)OCO4)C(C#N)=C(N)O3)cc1OC (stereo not drawn), the Potency is reported as active: 20.6 µM.
With CN(C)c1ccc(S(=O)(=O)N2CCCCC2)cc1NC(=O)C1CSC2(C)CCC(=O)N12 (stereo not drawn) the Potency was active: 25.9 µM.
In the case of CCOc1cc(CN2CCCC(N3CCN(c4ccc(F)cc4)CC3)C2)ccc1OC (stereo not drawn), the Potency is reported as inconclusive [inhibitor, partial curve, poor fit].
In the case of Cc1ccc(C)c(N2CCN(C(=O)Cn3cnc4onc(-c5ccc(F)cc5)c4c3=O)CC2)c1, the Potency is reported as inconclusive [inhibitor, single point].
With COc1ccc(S(=O)(=O)N2CCOC23CCN(S(=O)(=O)c2ccc(F)cc2C)CC3)cc1 the Potency was active: 23.1 µM.
For Cc1ccc2c(c1)N(C(=O)CCC(=O)NC1CCC(C)CC1)CCO2 (stereo not drawn), the Potency was inconclusive [inhibitor, partial curve].
With CCc1nc2ccc(C(=O)NCCCN(C)C)cn2c1N(C)Cc1ccc(OC)cc1 the Potency was inconclusive [inhibitor, partial curve].
For COC(=O)C1=C(C(=O)OC)[C@@H]2N(C)c3ccc(OC)cc3[C@@]23C[C@@H](C(=O)OC)N(C(=O)COCc2ccccc2)C3=N1, the “activity change, negative = growth inhibition” value was inactive: -6.88%.
In the case of COc1ccc(NC(=O)c2cc(-c3cc(C)c(C)cc3O)n[nH]2)c(OC)c1, the Potency is reported as inconclusive [inhibitor, single point].
With COc1ccccc1CNC(=O)C(=O)NCC(c1cccs1)S(=O)(=O)c1ccccc1 (stereo not drawn) the Potency was active: 16.4 µM.
With CCc1nnc(NC(=O)c2cc(=O)c3cc(C)ccc3o2)s1 the “activity change, negative = growth inhibition” value was inactive: -19.7%.
In the case of COc1ccccc1-c1cc(-c2ccccc2)nc(SC(C(N)=O)c2ccccc2)c1C#N (stereo not drawn), the Potency is reported as active: 23.1 µM.
With CCN(CC)S(=O)(=O)c1ccc(Cl)c(C(=O)NC2CCCC2)c1 the Potency was inconclusive [inhibitor, single point].
With Cc1ccc2oc(=O)c3cc(C(=O)NCCCOC(C)C)sc3c2c1 the “activity change, negative = growth inhibition” value was inactive: -23.8%.
With C=CCN=c1scc(C)n1/N=C/c1ccc(O)c(O)c1 the Potency was active: 7.31 µM.
In the case of O=[N+]([O-])c1ccc(COc2cccc(CNc3ccc(F)cc3)c2)cc1, the Potency is reported as active: 13 µM.
For CCN(CC)c1ccc(/C=N/N2CCN(Cc3ccc(C)cc3)CC2)c(O)c1, the activity change, negative = growth inhibition was inconclusive: -35% [inhibitor].
For COc1ccc(NS(=O)(=O)c2ccc(Cl)c(N)c2)cc1Br, the Potency was inconclusive [inhibitor, partial curve, poor fit].
For CCCS(=O)(=O)NC(=O)C1(C)CCN(C(=O)c2cc(OC)c(OC)c(OC)c2)C1 (stereo not drawn), the “activity change, negative = growth inhibition” value was inactive: 4.84%.
With Cc1ccc(C)c(NS(=O)(=O)c2cc3c4c(c2)CC(=O)N4CCC3)c1 the “activity change, negative = growth inhibition” value was inactive: -1.74%.
With CCNc1nc(Oc2ccc(Cl)cc2Cl)cc(C(F)(F)F)n1 the Potency was inconclusive [inhibitor, single point].
In the case of O=C(CN1CCCCCC1)Nc1ccccc1Oc1ccccc1, the Potency is reported as inconclusive [inhibitor, single point].
For Cc1cc(Cl)ccc1OCC(=O)N[C@@H](Cc1ccccc1)c1nc2ccccc2[nH]1, the Potency was active: 16.4 µM.
For Cc1ccc(SCCNC(=O)c2ccc(C)c(S(=O)(=O)Nc3ccccc3C)c2)cc1, the Potency was active: 22.4 µM.
For CCn1cnc2c1c(=O)n(Cc1ccc(C(=O)OC)cc1)c(=O)n2Cc1ccccc1, the Potency was inconclusive [inhibitor, partial curve].
In the case of Cc1cccc(C(=O)N[C@H](C(=O)Nc2cc(S(=O)(=O)N3CCCCC3)ccc2C)C(C)C)c1, the Potency is reported as inconclusive [inhibitor, partial curve, poor fit].
In the case of Cc1ccc(C(=O)Nc2ccc3c(c2)OCO3)cc1S(=O)(=O)N1CCCC1, the Potency is reported as active: 7.31 µM.
In the case of CC(C)(C)NC(=O)C(c1cccnc1)N(C(=O)c1ccc(Cl)nc1)C1CCCC1 (stereo not drawn), the “activity change, negative = growth inhibition” value is reported as inactive: -11.4%.
In the case of Cc1nnc(-c2cnn(-c3ccccc3)c2N)n1Cc1ccncc1, the “activity change, negative = growth inhibition” value is reported as inactive: -0.683%.
In the case of O=C(CN1C(=O)S/C(=C\c2ccccc2)C1=O)NCCCn1ccnc1, the “activity change, negative = growth inhibition” value is reported as inactive: -1.99%.
In the case of Cn1c(SCC(=O)Nc2ccc(N3CCOCC3)cc2)nnc1-c1ccccc1F, the “activity change, negative = growth inhibition” value is reported as inactive: -6.11%.
For O=C(COc1ccc(F)cc1Cl)Nc1cccc(S(=O)(=O)N2CCCCCC2)c1, the Potency was inconclusive [inhibitor, single point].
With Cc1noc(C)c1S(=O)(=O)N(CC(=O)NCc1ccc(F)cc1)c1ccc(C(C)C)cc1 the Potency was inconclusive [inhibitor, partial curve].
In the case of Nn1cc(-c2ccccc2)nc1SCC(=O)NCCc1ccccc1, the Potency is reported as inconclusive [inhibitor, single point].
For CC(OC(=O)C1CCCC1)C(=O)Nc1ccc(S(N)(=O)=O)cc1 (stereo not drawn), the Potency was inconclusive [inhibitor, single point].
With Cc1cccc(C(=O)Nc2cc3c(cc2C)n(C)c(=O)n3C)c1 the “activity change, negative = growth inhibition” value was inactive: -5.42%.
With CCCCC(=O)N(C)c1c(C)nc2ccc(C(=O)N(C)CCN(C)C)cn12 the “activity change, negative = growth inhibition” value was inactive: -8.16%.
For O=C(O)c1cc(=O)c2c(Cl)cc(Cl)cc2[nH]1, the Potency was “inactive”.
With COc1cccc(-c2nc(CS(=O)(=O)CC(=O)NC3CCCc4ccccc43)c(C)o2)c1 (stereo not drawn) the Potency was active: 18.4 µM.
With O=C1C(c2ccc(F)cc2)N(CCc2ccc(Cl)cc2)C(=O)CN1C1CCCCC1 (stereo not drawn) the Potency was active: 20.6 µM.
